Assay results published in PubChem BioAssay AID1347120 (National Center for Advancing Translational Sciences (NCATS), 2019).
Screen size: about 390,000 compounds; about 930 (0.24%) were called active. The shares of active, inactive and inconclusive entries below differ from those in the screen. Calls come from the whole dose curve; as a rule, active = well fitted activation curve with a large enough effect; inconclusive = small, poorly fitted or top-dose-only effect; inactive = no such curve, though single readings can be large or run the other way. A potency beside an inconclusive call is a rough fit, not a confirmed value.

Experiment: qHTS for Suppressors of FUS Proteinopathy: Primary screen using FUS-linked yeast assay; note: nearly all actives have a fitted effect of over 55% in size;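 for growth rescue (activation): plate controls were DMSO vehicle for no effect and reference control for full effect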
Conditions: S. cerevisiae FUS-expressing, OD600, 24 h; Potency: growth rescue; growth rescue (activation): at 76.6 µM (top of the series)
Summary of the method: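 Galactose (2%) drives FUS expression in yeast precultured in raffinose; seeding density OD 0.005. Test compounds incubated 24hr at 30C and 99% humidity before absorbance at 600 nm was measured.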
Potency is the fitted concentration of half-maximal effect; tags give direction and shape of the fitted curve.

Row | SMILES | Potency | growth rescue (activation)
1 | N#Cc1c(SCC(=O)Nc2cccc(C(F)(F)F)c2)sc2c(O)cc(=O)[nH]c12 | inconclusive: 3.16 µM [activator, full curve] | 
2 | N#CC1=C2SCN(Cc3ccco3)CN2C(=O)CC1c1cccc2ccccc12 (stereo not drawn) | inconclusive: 28.2 µM [activator, partial curve, poor fit] | 
3 | Cc1ccc(-c2nn3c(C)nnc3s2)cc1NC(=O)c1ccc(-c2cccc(Cl)c2)o1 | inconclusive: 17.8 µM [activator, partial curve, poor fit] | 
4 | COc1ccc(OC)c(S(=O)(=O)NCCc2csc(-c3cccc(F)c3)n2)c1 | inconclusive: 50.1 µM [activator, single point] | 
5 | Cc1ccc(NC(=O)Cn2c(/C=C/c3ccccc3)nc3ccccc32)cc1C | inconclusive: 39.8 µM [activator, partial curve, poor fit] | 
6 | CCc1ccc(C(c2c(C)nn(-c3ccccc3)c2N)c2c(C)nn(-c3ccccc3)c2N)cc1 | inconclusive: 8.91 µM [activator, partial curve] | 
7 | CCOC(=O)c1c(C)[nH]c(C)c1C(=O)COC(=O)CSc1ccc(C)cc1 | inconclusive: 28.2 µM [activator, single point] | 
8 | O=C(NCc1nc2ccccc2[nH]1)C1=C[C@@H](c2ccc(C(F)(F)F)cc2)C[C@@H](OCCCCO)O1 | inconclusive: 31.6 µM [activator, partial curve, poor fit] | 
9 | OC1COC(c2ccccc2)OC1C(O)C1OC(c2ccccc2)OCC1O (stereo not drawn) | inactive | 
10 | CCOC(=O)N1CCC(NC(=O)c2cc3sccc3n2CC)CC1 |  | inconclusive: 63.4% [activator]
11 | CCOC(=O)N1CCC(N2C(=O)c3ccccc3C2Nc2ccc(S(=O)(=O)N(CC)CC)cc2)CC1 (stereo not drawn) | inconclusive: 31.6 µM [activator, single point] | 
12 | CC(C)c1ccc2c(c1)C(c1ccc(N3CCOCC3)cc1)=NNC(c1cccs1)=N2 | inconclusive: 39.8 µM [activator, partial curve, poor fit] | 
13 | CN(C(=O)COC(=O)c1cc(S(=O)(=O)N2CCCCC2)ccc1Cl)c1ccccc1 | inconclusive: 31.6 µM [activator, partial curve, poor fit] | 
14 | COC(=O)c1ccc(CSc2nnc3ccc4ccccc4n23)cc1 | inactive | 
15 | COc1cc(F)c(S(=O)(=O)Nc2c(C)n(C)n(-c3ccccc3)c2=O)cc1OC | inconclusive: 3.16 µM [activator, partial curve, poor fit] | 
16 | CCCc1nc2ccccc2c(C(=O)OCC(=O)Nc2ccc(S(=O)(=O)N3CCOCC3)cc2)c1CC | inconclusive: 35.5 µM [activator, partial curve, poor fit] | 
17 | CCn1cc2c(n1)-c1c(oc(C(=O)Nc3cccc(C(F)(F)F)c3)c1C)CC2 | inactive | 
18 | COc1ccccc1Cn1cc(C(=O)c2ccc(C)cc2)c(=O)c2cc3c(cc21)OCCO3 | inactive | 
19 | Cc1ccc(CNc2nc3cc(-c4ccccc4C)sc3c(=O)n2C)c(C)c1 | inconclusive: 11.2 µM [activator, partial curve, poor fit] | 
20 | COc1c(C(CC(C)C)OC(C)=O)ccc2c1C(=O)OCc1cc(C)cc(O)c1O2 (stereo not drawn) | inconclusive: 14.1 µM [activator, partial curve] | 
21 | CN1CCc2cc3c(c4c2[C@H]1[C@H](O)c1ccccc1-4)OCO3 | inactive | 

Row | SMILES | Potency | growth rescue (activation)
22 | COc1ccc(C2=Nn3c(nnc3-c3ccccc3OC)SC2)cc1OCC1CC1 | inconclusive: 35.5 µM [activator, single point] | 
23 | CCOc1ccc(N2CC(C(=O)NC3=NCCS3)CC2=O)cc1 (stereo not drawn) | inactive | 
24 | O=C(O)CSc1c2c(nc3cc(C(=O)N4CCOCC4)ccc13)CCCC2 | inconclusive: 25.1 µM [activator, single point] | 
25 | Cn1nc(C(C)(C)C)cc1C(=O)N1CCCCC1c1cc(C(=O)Nc2ccccc2Cl)no1 (stereo not drawn) | inconclusive: 17.8 µM [activator, partial curve, poor fit] | 
26 | CCOc1ccc(-c2nc(=S)[nH][nH]2)cc1 | inactive | 
27 | COc1cc2c(cc1NC(=O)COc1ccc(Cl)cc1Br)oc1ccccc12 | inactive | 
28 | Cc1ccc(C(=O)C2CCN(CC(=O)N3CC(C)CC(C)C3)CC2)cc1 (stereo not drawn) | inactive | 
29 | CC(C)C[C@@H](CNCC(=O)[C@H](CC(C)C)NC(=O)c1[nH]cnc1C(=O)N[C@H](CN)CC(C)C)NC(=O)c1nc[nH]c1C(=O)N[C@@H](Cc1ccccc1)C(=O)O | inconclusive: 28.2 µM [activator, single point] | 
30 | CCOC(=O)CSc1nnc2n(-c3ccccc3)c(=O)c3c4c(sc3n12)CC(C(C)(C)C)CC4 (stereo not drawn) | inconclusive: 28.2 µM [activator, single point] | 
31 | O=C(NC(Cc1ccccc1)C(=O)N1CCN(c2ccccc2O)CC1)c1ccccc1 (stereo not drawn) | inconclusive: 35.5 µM [activator, single point] | 
32 | CSc1ccccc1NC(=O)CN(C)C(C)C(=O)NCc1ccc2c(c1)OCO2 (stereo not drawn) | inactive | 
33 | CCCCCSc1nc2sc3c(c2c(=O)n1-c1ccc(OC)cc1)CCN(C(C)=O)C3 | inconclusive: 12.6 µM [activator, partial curve, poor fit] | 
34 | CCCC(=O)Nc1ccc2c(c1)nc1n2CCN(C2CCCCC2)C1 | inconclusive: 28.2 µM [activator, partial curve] | 
35 | O=C(NNC(=S)NC(=O)c1ccccc1[N+](=O)[O-])c1ccccc1Cl | inactive | 
36 | Cc1ccc(NC(=O)c2ccc3c(c2)N(CC(=O)N2CCCCC2)C(=O)C(C)(C)O3)cc1 | inconclusive: 39.8 µM [activator, partial curve, poor fit] | 
37 | O=C(CSc1nc(O)cc(=O)[nH]1)N1c2ccccc2CCc2ccccc21 | inconclusive: 31.6 µM [activator, partial curve, poor fit] | 
38 | Cc1noc(/C=C/c2ccco2)c1S(=O)(=O)N1CCC(C(=O)NCc2ccco2)CC1 | inconclusive: 20 µM [activator, partial curve] | 
39 | CCCCCc1ccc(NC(=O)O[C@@H]2CC[C@@]34CCCN3C(=O)CCC[C@H]4C2)cc1 | active: 22.4 µM | 
40 | Cc1ccc(-n2nnc(-c3nc(-c4cccs4)no3)c2N)c(C)c1 | inactive | 
41 | CN(Cc1ccco1)S(=O)(=O)c1ccc(CN2C(=O)c3cccnc3C2=O)s1 | inactive | 
42 | COC(=O)CSc1nc2sc3c(c2c(=O)n1-c1ccccc1C)CC(C)(C)OC3 | inactive | 

Row | SMILES | Potency | growth rescue (activation)
43 | CCc1ccc(NS(=O)(=O)c2cc(-c3cnc(C4CC4)o3)ccc2C)cc1 | inconclusive: 25.1 µM [activator, single point] | 
44 | Cc1ccc(OCC(=O)OC2=C(C(=O)c3ccccc3)N(C)S(=O)(=O)c3ccccc32)cc1 | inactive | 
45 | CCOC(=O)C(c1ccccc1)C(Nc1ccc(F)cc1)c1ccccn1 (stereo not drawn) | inconclusive: 50.1 µM [activator, single point] | 
46 | COc1ccc(-c2ccnc(-c3ccc(O)cc3)n2)cc1 | inactive | 
47 | COc1ccc2c(c1)Cc1sc(NC(=O)c3cccc(C)c3)nc1-2 | inconclusive: 12.6 µM [activator, partial curve, poor fit] | 
48 | Cc1ccccc1C(=O)Nc1ccc2nc(SCC(=O)N3CCc4ccccc43)sc2c1 | inactive | 
49 | CCc1ccccc1NC(=O)Cn1c(=O)n(-c2ccc(CC(=O)NCC3CCCO3)cc2)c(=O)c2ccccc21 (stereo not drawn) | inactive | 
50 | CCOC(=O)C1=C(C)N=c2s/c(=C\c3cccc(OCC(=O)O)c3)c(=O)n2C1c1ccccc1 (stereo not drawn) | inconclusive: 44.7 µM [activator, partial curve, poor fit] | 
51 | CC1Sc2ccc(C(=O)N(CCc3ccccc3)Cc3ccccc3)cc2NC1=O (stereo not drawn) | inconclusive: 22.4 µM [activator, single point] | 
52 | O=C(CCc1ccccc1)N[C@H]1[C@@H](OC(=O)c2ccco2)CCC[C@@]12C(=O)N(Cc1ccccc1)c1ccccc12 | inconclusive: 14.1 µM [activator, partial curve, poor fit] | 
53 | COc1ccnc(Oc2ccccc2)c1C(=O)N/C=N/OCc1ccc(F)cc1Cl | inconclusive: 39.8 µM [activator, partial curve, poor fit] | 
54 | COc1ccccc1CNS(=O)(=O)c1ccc(-c2cnc(C3CC3)o2)cc1 | inconclusive: 28.2 µM [activator, single point] | 
55 | Cc1cc2cc(CNC(=S)Nc3ccc(OC(F)F)cc3)ccc2n1C | inconclusive: 35.5 µM [activator, partial curve, poor fit] | 
56 | Cc1ccc(Cl)cc1NC(=O)c1cc(NC(=O)C2CCCCC2C(=O)O)ccc1N1CCOCC1 (stereo not drawn) | inconclusive: 1.41 µM [activator, full curve] | 
57 | CCOC(=O)c1ccc(S(=O)(=O)Nc2nc3cc(S(=O)(=O)NC4=NCCCCC4)ccc3s2)cc1 | inconclusive: 15.8 µM [activator, partial curve] | 
58 | O=C(c1cc(-c2cccs2)nc2ccccc12)N1CCN(c2ccccc2)CC1 | inactive | 
59 | O=c1c2c3c(sc2nc2n1CCCCC2)CCCC3 | inactive | 
60 | C#CCNC(=O)C[C@@H]1C(=O)N2CCCC3=C2[C@@]1(C(=O)OC)CCCC3 | inactive | 
61 | CC[n+]1ccc(C)c2cc(P(=O)(c3ccccc3)c3ccccc3)ccc21 | inactive | 
62 | NC(=O)c1nsc(C(=O)N(c2cccc(F)c2)C(C(=O)NCC2CCCO2)c2c[nH]c3ccccc23)c1N (stereo not drawn) | inconclusive: 20 µM [activator, partial curve] | 
63 | CCOc1ccc(-c2nn(-c3ccccc3)cc2C2NC(=O)NC(C)=C2C(=O)OC(C)C)cc1 (stereo not drawn) | inconclusive: 44.7 µM [activator, single point] | 
